According to the supplement of paper PMC3334620:
The full ranking holds about 33,000 sequences; the median of “E-score (-0.5 to 0.5)” is about -0.016, and the highest 2% start at about 0.32. This is one part of the list.

Target: T1, Stp1 (UniProt B3LFK1)
T1 sequence: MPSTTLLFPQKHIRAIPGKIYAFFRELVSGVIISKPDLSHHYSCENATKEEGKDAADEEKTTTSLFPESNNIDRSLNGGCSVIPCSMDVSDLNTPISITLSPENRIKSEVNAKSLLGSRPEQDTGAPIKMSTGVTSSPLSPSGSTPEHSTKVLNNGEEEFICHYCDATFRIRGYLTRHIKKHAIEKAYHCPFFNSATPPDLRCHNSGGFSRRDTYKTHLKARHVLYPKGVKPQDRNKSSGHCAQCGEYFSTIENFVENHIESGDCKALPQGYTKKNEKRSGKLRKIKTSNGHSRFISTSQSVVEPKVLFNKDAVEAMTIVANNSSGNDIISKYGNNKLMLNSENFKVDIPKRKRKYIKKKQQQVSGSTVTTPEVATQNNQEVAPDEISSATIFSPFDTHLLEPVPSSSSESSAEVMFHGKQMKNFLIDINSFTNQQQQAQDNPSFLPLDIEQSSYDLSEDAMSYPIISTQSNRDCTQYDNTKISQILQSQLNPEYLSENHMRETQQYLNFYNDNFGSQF
Assay: PBM E-score (8-mer binding enrichment) (E-score (-0.5 to 0.5)); higher = stronger / more preferred TF binding; most listed sequences are background and not binding sites
Details: protein concentration: 200 nM; construct: GST-full length
Method in brief: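 Bound GST-tagged yeast transcription factors, applied at about 100-200 nM to double-stranded universal all-10-mer Agilent arrays, were detected with fluorescent anti-GST. Scans were normalised with masliner. A modified Wilcoxon-Mann-Whitney statistic, the E-score, was assigned to each ungapped eight-base word pooled with its reverse complement by the Universal PBM Analysis Suite.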

Sequence	PBM E-score
AACGCAAG	-0.143
CAACACGA	0.0474
CGAATAAG	-0.0318
CAAGTCCA	-0.219
CGGCCCGA	-0.0193
CAACCCCC	-0.185
TCGACCGA	-0.0119
ACCACGCC	0.0954
GCCTACGA	0.178
GTATCGTA	0.141
TAAGTCAA	-0.0101
GACAATCC	-0.0902
CTTATAGA	0.0839
ACCATTGA	-0.00978
AAGCAAGA	-0.0272
CACATTCA	-0.0223
AGATCTCG	-0.175
CCAAAAAC	0.103
AATCAGTC	-0.0135
ACTATCAG	-0.0716
CAGACCGC	0.0528
AGTACTGA	-0.0258
ATGCTAGC	0.0222
ATGGTTTC	0.0834
CAATTGGA	-0.021

Sequence	PBM E-score
ACCGGGCG	-0.181
CTAATGGC	0.00836
ATTCACTG	-0.00846
AGCGTGCA	0.0143
ATAGGCCA	-0.149
CACTCGCA	-0.154
AAAACTCT	-0.0562
CGGTGGGA	-0.204
CCCACAAC	-0.0446
CCCTGTAG	-0.231
AGACGTCC	-0.107
ATCTGAAA	0.134
CACCGGGG	-0.345
GATACTGC	0.146
GGTGGATA	-0.0903
CACTCAAC	0.0238
TAGATAAA	0.128
ACGAAACG	0.238
AAACCACA	0.109
AGAGCTTC	-0.215
AGGTCCTG	-0.294
CGCTCGAA	-0.176
GACAAGTA	-0.0307
ACAAACCG	-0.0683
CCAATTGG	-0.0737

Sequence	PBM E-score
CCGTTTTA	0.13
ACATAGTG	-0.00204
GACTAACC	-0.18
GCTGCTTA	-0.0456
AGCTTCGG	-0.155
ATGATTGC	0.0859
TGATGGCA	-0.165
CACTATCG	0.124
CGATACTA	0.156
CCTCGAGG	-0.161
CTTCCGGC	0.126
AGAAGATA	0.129
CGTTTATA	0.331
CCATTAAA	0.0525
CTCCGCAA	-0.117
CACTGGCC	-0.225
AGGCACAC	0.0169
ACGCAGCA	-0.0873
GATAAGCA	0.0561
CATCTGAG	0.177
AGGGGTGC	-0.0447
GTGAGAGA	0.0511
ACGTGACC	-0.161
ACTCTCGG	-0.0544
TCCGAAAA	-0.159

Sequence	PBM E-score
CTATGATC	0.0732
ACCCTGAG	-0.216
ATAACTAG	0.0832
GACGCACA	-0.0542
ACCGGCTC	-0.0667
ACACCTCA	-0.159
CCAGGTTA	-0.165
GTTCAAAA	0.185
GAATCGGC	0.268
CACCCATA	-0.029
GATGGACA	-0.151
CAAAGACC	-0.0037
AGGCTGGA	-0.262
CATCCGCC	-0.0808
ACACGATC	0.00182
ACTAATCT	-0.0199
ATGACCTA	-0.0891
CGCGCCCC	0.209
CCGTCATC	-0.0428
ATGATTCA	-0.0956
AAGTTCGT	5e-05
GAGCTGCA	-0.143
AGATTAGA	0.0144
GAATACCC	-0.105
ACAAGTAA	-0.0143

Sequence	PBM E-score
CGCCAGAC	0.0361
CAGACTCC	-0.148
CTTTATAC	0.0213
GCCTCCAA	-0.0782
AGACGAGC	0.0654
CCATGACG	0.0214
GCCGGAGA	0.0478
CTGCGCTA	-0.221
GCCGACTA	0.132
CTGGTCTA	-0.11
AGTAGAAT	0.196
ACCGCTTG	0.00664
CAACGGGA	0.0536
AGATTTCC	-0.00021
AAGGCAAA	0.247
ACGTTCTA	-0.0268
CGACATCC	-0.0307
AACAGGAG	-0.283
CGCGTGAC	0.0453
GTGGTACA	-0.069
CCGCATCG	0.175
TACGAGAA	0.0776
TCGCGAAA	0.0549
GCTTTTAA	-0.0796
TGAAATAA	0.0772

Sequence	PBM E-score
CTAAAATC	-0.102
AAAATAAT	0.248
CGGTATGC	-0.0255
CAGTATGA	0.111
ACGGCATG	0.422
CACCACGA	-0.0238
AGACACAG	-0.286
CTGGTTGA	-0.233
GGAAGCTA	-0.174
AGTAGCGA	-0.0798
AGTCCGGA	0.00876
CCAATAAA	0.25
GACCTGTA	-0.216
ATAAAGGA	-0.201
GCACAGAC	0.142
CGAAGGTA	-0.00193
GTAGCTGA	-0.154
ACATTTGG	-0.113
CCCCGTCG	-0.134
AGACACAT	-0.142
AAAAGAAC	0.0475
CTCGATAA	0.156
ACTCACAT	-0.103
ATTATTCC	0.0221
GTGCAAGA	0.171

Sequence	PBM E-score
ATGTGACG	-0.18
ACCGTTCA	-0.0101
ATGGGTGG	-0.155
ACGCAGAC	-0.0966
CTTTAAGA	-0.0405
GAGCGACA	-0.0788
GCTGAGCA	-0.0706
GAAAGTGC	-0.045
GTTAACCA	0.145
CACAGTAA	0.209
GCCCGCCC	-0.0566
GTGAACTA	0.00375
CTCTCGAA	-0.105
ACAAACTC	0.0499
AAAAATAC	0.151
ACCTACGG	-0.16
CGGAAGAG	-0.00742
GGATATGA	-0.0473
GAATTTCC	0.108
ATCAGGCC	-0.14
GTCATATA	0.0494
GAGCGCAC	-0.19
